These are yes or no findings as the source states them, for the method shown. In cells and extracts the contact can be indirect. Some results given as binding are weak or reduced against the parent protein; the word gives no strength. For some of these results: Where a sequence is shown, tags or fusion partners need not be part of it. One block for each binder: values may come before it.
Assays:
Myc-EHD2 (human), Q9NZN4 [1] = target: T1, Myc-EHD2 (human), Q9NZN4; test: co-IP; HeLa cells, Myc- and GFP-tagged EHD proteins; data not shown; details: remark: other sources report otherwise
T1 chain: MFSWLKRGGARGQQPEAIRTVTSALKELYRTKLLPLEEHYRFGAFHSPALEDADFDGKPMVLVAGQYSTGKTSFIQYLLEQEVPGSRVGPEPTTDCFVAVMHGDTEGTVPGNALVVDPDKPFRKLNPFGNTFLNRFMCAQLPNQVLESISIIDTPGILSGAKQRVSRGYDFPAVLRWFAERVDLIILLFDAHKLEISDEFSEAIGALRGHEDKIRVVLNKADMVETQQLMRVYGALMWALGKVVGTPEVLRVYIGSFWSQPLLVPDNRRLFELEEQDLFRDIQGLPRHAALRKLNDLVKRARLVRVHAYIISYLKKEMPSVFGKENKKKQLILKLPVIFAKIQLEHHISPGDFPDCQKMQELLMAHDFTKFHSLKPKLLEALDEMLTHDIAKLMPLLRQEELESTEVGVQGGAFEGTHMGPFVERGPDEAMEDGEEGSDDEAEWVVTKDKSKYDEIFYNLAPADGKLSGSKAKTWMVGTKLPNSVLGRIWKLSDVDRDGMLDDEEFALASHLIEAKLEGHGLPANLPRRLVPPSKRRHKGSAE

Myc-EHD2 (human), Q9NZN4 [2] = target: T1, Myc-EHD2 (human), Q9NZN4; test: co-IP; HEK 293T co-transfected with one Myc-tagged and one GFP-tagged construct (2.5 μg each); lysis in 1% Triton X-100, 150 mM NaCl, 50 mM Tris-HCl pH 7.6; lysates rocked overnight at 4°C; 1 mg lysate, IP with 3 μg anti-Myc (9E10), anti-GFP immunoblot; details: remark: other sources report otherwise
[3] = target: T2, EHD1 (endogenous, mouse tissue) (mouse (endogenous in mouse tissue)) (UniProt Q9WVK4); test: co-IP; mouse tissue extracts, endogenous proteins, IP with anti-human EHD1 antibodies; data not shown
T2 sequence: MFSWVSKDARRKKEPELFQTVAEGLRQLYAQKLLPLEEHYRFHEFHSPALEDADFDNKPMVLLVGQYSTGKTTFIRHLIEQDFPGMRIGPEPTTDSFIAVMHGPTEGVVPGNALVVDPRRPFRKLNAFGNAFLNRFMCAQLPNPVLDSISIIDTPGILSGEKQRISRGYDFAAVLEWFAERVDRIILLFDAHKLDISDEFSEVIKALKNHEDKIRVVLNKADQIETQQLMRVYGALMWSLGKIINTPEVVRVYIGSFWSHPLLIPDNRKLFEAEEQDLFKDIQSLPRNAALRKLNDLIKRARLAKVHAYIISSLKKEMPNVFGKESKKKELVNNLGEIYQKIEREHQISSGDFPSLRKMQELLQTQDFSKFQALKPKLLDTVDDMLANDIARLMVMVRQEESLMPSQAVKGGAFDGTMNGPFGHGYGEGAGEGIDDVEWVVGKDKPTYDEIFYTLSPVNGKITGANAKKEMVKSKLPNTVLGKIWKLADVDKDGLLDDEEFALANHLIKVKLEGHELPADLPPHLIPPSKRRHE

Myc-EHD1 (human) = target: T3, Myc-EHD1 (human) (UniProt Q9H4M9); test: co-IP; HEK 293T co-transfected with one Myc-tagged and one GFP-tagged construct (2.5 μg each); lysis in 1% Triton X-100, 150 mM NaCl, 50 mM Tris-HCl pH 7.6; lysates rocked overnight at 4°C; 1 mg lysate, IP with 3 μg anti-Myc (9E10), anti-GFP immunoblot
T3 sequence: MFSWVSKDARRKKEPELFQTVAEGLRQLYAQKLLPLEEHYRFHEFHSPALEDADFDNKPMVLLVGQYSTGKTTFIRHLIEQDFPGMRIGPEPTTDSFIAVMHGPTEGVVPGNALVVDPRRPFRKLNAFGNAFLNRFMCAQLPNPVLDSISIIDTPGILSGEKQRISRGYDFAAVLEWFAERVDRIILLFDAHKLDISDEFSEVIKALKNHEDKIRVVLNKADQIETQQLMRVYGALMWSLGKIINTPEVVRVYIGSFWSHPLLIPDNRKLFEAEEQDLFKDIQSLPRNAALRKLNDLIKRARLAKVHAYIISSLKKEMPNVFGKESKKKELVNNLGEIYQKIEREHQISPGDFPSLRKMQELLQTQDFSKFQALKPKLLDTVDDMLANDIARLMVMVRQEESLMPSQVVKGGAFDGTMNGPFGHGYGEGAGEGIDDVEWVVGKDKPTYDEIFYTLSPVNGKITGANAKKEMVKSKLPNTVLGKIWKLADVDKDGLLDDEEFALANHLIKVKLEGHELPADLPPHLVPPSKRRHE

Myc-EHD1 (human), Q9H4M9 [4] = target: T4, Myc-EHD1 (human), Q9H4M9; test: co-IP; HeLa cells, Myc- and GFP-tagged EHD proteins; data not shown; details: remark: other sources report otherwise
T4 chain: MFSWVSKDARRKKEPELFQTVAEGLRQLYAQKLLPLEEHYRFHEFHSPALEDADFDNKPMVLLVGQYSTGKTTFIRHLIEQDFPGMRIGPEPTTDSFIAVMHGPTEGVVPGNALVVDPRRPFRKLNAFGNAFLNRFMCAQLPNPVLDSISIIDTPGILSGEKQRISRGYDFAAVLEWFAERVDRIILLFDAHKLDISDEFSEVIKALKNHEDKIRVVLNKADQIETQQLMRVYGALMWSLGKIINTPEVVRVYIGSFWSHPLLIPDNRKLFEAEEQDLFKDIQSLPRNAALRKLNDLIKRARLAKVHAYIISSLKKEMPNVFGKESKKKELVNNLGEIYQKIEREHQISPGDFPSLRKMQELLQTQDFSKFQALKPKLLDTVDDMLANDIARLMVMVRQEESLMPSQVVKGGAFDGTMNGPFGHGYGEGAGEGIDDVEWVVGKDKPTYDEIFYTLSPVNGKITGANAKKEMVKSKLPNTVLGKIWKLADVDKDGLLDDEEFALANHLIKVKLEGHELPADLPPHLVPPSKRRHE

Myc-EHD1 (human), Q9H4M9 [5] = target: T4, Myc-EHD1 (human), Q9H4M9; test: co-IP; HEK 293T co-transfected with one Myc-tagged and one GFP-tagged construct (2.5 μg each); lysis in 1% Triton X-100, 150 mM NaCl, 50 mM Tris-HCl pH 7.6; lysates rocked overnight at 4°C; 1 mg lysate, IP with 3 μg anti-Myc (9E10), anti-GFP immunoblot; details: remark: other sources report otherwise

binding (Myc-EHD1 (human)): no binding
B3: GFP-myotubularian-related protein 3 (MTMR3) (protein, UniProt Q13615 1-1198)
chain: MDEETRHSLECIQANQIFPRKQLIREDENLQVPFLELHGESTEFVGRAEDAIIALSNYRLHIKFKESLVNVPLQLIESVECRDIFQLHLTCKDCKVIRCQFSTFEQCQEWLKRLNNAIRPPAKIEDLFSFAYHAWCMEVYASEKEQHGDLCRPGEHVTSRFKNEVERMGFDMNNAWRISNINEKYKLCGSYPQELIVPAWITDKELESVSSFRSWKRIPAVIYRHQSNGAVIARCGQPEVSWWGWRNADDEHLVQSVAKACASDSRSSGSKLSTRNTSRDFPNGGDLSDVEFDSSLSNASGAESLAIQPQKLLILDARSYAAAVANRAKGGGCECPEYYPNCEVVFMGMANIHSIRRSFQSLRLLCTQMPDPGNWLSALESTKWLHHLSVLLKSALLVVHAVDQDQRPVLVHCSDGWDRTPQIVALAKLLLDPYYRTIEGFQVLVEMEWLDFGHKFADRCGHGENSDDLNERCPVFLQWLDCVHQLQRQFPCSFEFNEAFLVKLVQHTYSCLFGTFLCNNAKERGEKHTQERTCSVWSLLRAGNKAFKNLLYSSQSEAVLYPVCHVRNLMLWSAVYLPCPSPTTPVDDSCAPYPAPGTSPDDPPLSRLPKTRSYDNLTTACDNTVPLASRRCSDPSLNEKWQEHRRSLELSSLAGPGEDPLSADSLGKPTRVPGGAELSVAAGVAEGQMENILQEATKEESGVEEPAHRAGIEIQEGKEDPLLEKESRRKTPEASAIGLHQDPELGDAALRSHLDMSWPLFSQGISEQQSGLSVLLSSLQVPPRGEDSLEVPVEQFRIEEIAEGREEAVLPIPVDAKVGYGTSQSCSLLPSQVPFETRGPNVDSSTDMLVEDKVKSVSGPQGHHRSCLVNSGKDRLPQTMEPSPSETSLVERPQVGSVVHRTSLGSTLSLTRSPCALPLAECKEGLVCNGAPETENRASEQPPGLSTLQMYPTPNGHCANGEAGRSKDSLSRQLSAMSCSSAHLHSRNLHHKWLHSHSGRPSATSSPDQPSRSHLDDDGMSVYTDTIQQRLRQIESGHQQEVETLKKQVQELKSRLESQYLTSSLHFNGDFGDEVTSIPDSESNLDQNCLSRCSTEIFSEASWEQVDKQDTEMTRWLPDHLAAHCYACDSAFWLASRKHHCRNCGNVFCSSCCNQKVPVPSQQLFEPSRVCKSCYSSLHPTSSSIDLELDKPIAATSN

binding [3]: binds
B4: EHD4 (endogenous, mouse tissue) (protein, UniProt Q9EQP2 1-541)
chain: MFSWMGRQAGGRERSGGMDAVQTVTGGLRSLYQRKVLPLEEAYRFHEFHSPALEDADFENKPMILLVGQYSTGKTTFIRYLLEQDFPGMRIGPEPTTDSFIAVMYGETEGSTPGNALVVDPKKPFRKLSRFGNAFLNRFMCSQLPNQVLKSISIIDSPGILSGEKQRISRGYDFCQVLQWFAERVDRIILLFDAHKLDISDEFSEAIKAFRGQDDKIRVVLNKADQVDTQQLMRVYGALMWSLGKVINTPEVLRVYIGSFWAQPLQNTDNRRLFEAEAQDLFRDIQSLPQKAAVRKLNDLIKRARLAKVHAYIISYLKKEMPNMFGKENKKRELIYRLPEIYVQLQREYQISAGDFPEVKAMQEQLENYDFTKFHSLKPKLIEAVDNMLTNKISSLMGLISQEEMNMPTQMVQGGAFDGTTEGPFNQGYGEGAKEGADEEEWVVAKDKPVYDELFYTLSPINGKISGVNAKKEMVTSKLPNSVLGKIWKLADCDCDGMLDEEEFALAKHLIKIKLDGYELPNSLPPHLVPPSHRKSLPKAD

Further lines, the binder ahead of its results:

B1: EHD1-GFP, Q9H4M9 1-534 (protein)
chain: MFSWVSKDARRKKEPELFQTVAEGLRQLYAQKLLPLEEHYRFHEFHSPALEDADFDNKPMVLLVGQYSTGKTTFIRHLIEQDFPGMRIGPEPTTDSFIAVMHGPTEGVVPGNALVVDPRRPFRKLNAFGNAFLNRFMCAQLPNPVLDSISIIDTPGILSGEKQRISRGYDFAAVLEWFAERVDRIILLFDAHKLDISDEFSEVIKALKNHEDKIRVVLNKADQIETQQLMRVYGALMWSLGKIINTPEVVRVYIGSFWSHPLLIPDNRKLFEAEEQDLFKDIQSLPRNAALRKLNDLIKRARLAKVHAYIISSLKKEMPNVFGKESKKKELVNNLGEIYQKIEREHQISPGDFPSLRKMQELLQTQDFSKFQALKPKLLDTVDDMLANDIARLMVMVRQEESLMPSQVVKGGAFDGTMNGPFGHGYGEGAGEGIDDVEWVVGKDKPTYDEIFYTLSPVNGKITGANAKKEMVKSKLPNTVLGKIWKLADVDKDGLLDDEEFALANHLIKVKLEGHELPADLPPHLVPPSKRRHE
binding (Myc-EHD2 (human), Q9NZN4 [1]): binds
binding (Myc-EHD2 (human), Q9NZN4 [2]): binds

B2: EHD2 (endogenous, mouse tissue) (protein, UniProt Q8BH64 1-543)
chain: MFSWLKKGGARGQRPEAIRTVTSSLKELYRTKLLPLEEHYRFGSFHSPALEDADFDGKPMVLVAGQYSTGKTSFIQYLLEQEVPGSRVGPEPTTDCFVAVMHGETEGTVPGNALVVDPEKPFRKLNPFGNTFLNRFMCAQLPNQVLESISIIDTPGILSGAKQRVSRGYDFPAVLRWFAERVDLIILLFDAHKLEISDEFSEAIGALRGHEDKIRVVLNKADMVETQQLMRVYGALMWALGKVVGTPEVLRVYIGSFWSQPLLVPDNRRLFELEEQDLFRDIQGLPRHAALRKLNDLVKRARLVRVHAYIISYLKKEMPTVFGKENKKKQLILKLPVIFAKIQLEHHISPGDFPDCQKMQELLMAHDFTKFHSLKPKLLEALDDMLAQDIAKLMPLLRQEELESVEAGVQGGAFEGTRMGPFVERGPDEAIEDGEEGSEDDAEWVVTKDKSKYDEIFYNLAPADGKLSGSKAKTWMVGTKLPNSVLGRIWKLSDVDRDGMLDDEEFALASHLIEAKLEGHGLPTNLPRRLVPPSKRRQKGSAE
binding [3]: binds

B5: EHD2-GFP, Q9NZN4 1-543 (protein)
chain: MFSWLKRGGARGQQPEAIRTVTSALKELYRTKLLPLEEHYRFGAFHSPALEDADFDGKPMVLVAGQYSTGKTSFIQYLLEQEVPGSRVGPEPTTDCFVAVMHGDTEGTVPGNALVVDPDKPFRKLNPFGNTFLNRFMCAQLPNQVLESISIIDTPGILSGAKQRVSRGYDFPAVLRWFAERVDLIILLFDAHKLEISDEFSEAIGALRGHEDKIRVVLNKADMVETQQLMRVYGALMWALGKVVGTPEVLRVYIGSFWSQPLLVPDNRRLFELEEQDLFRDIQGLPRHAALRKLNDLVKRARLVRVHAYIISYLKKEMPSVFGKENKKKQLILKLPVIFAKIQLEHHISPGDFPDCQKMQELLMAHDFTKFHSLKPKLLEALDEMLTHDIAKLMPLLRQEELESTEVGVQGGAFEGTHMGPFVERGPDEAMEDGEEGSDDEAEWVVTKDKSKYDEIFYNLAPADGKLSGSKAKTWMVGTKLPNSVLGRIWKLSDVDRDGMLDDEEFALASHLIEAKLEGHGLPANLPRRLVPPSKRRHKGSAE
binding (Myc-EHD1 (human), Q9H4M9 [4]): binds
binding (Myc-EHD1 (human), Q9H4M9 [5]): binds

Source: publication PMC1793994
